Screen size: about 3,200 compounds; about 110 (3.4%) showed an effect of 50% or more. The list shows a part of the results.
The compounds below were run on T1, V. cholerae SAD30. Conditions: relative growth, OD600, LB; 25 µM; inhibitor.
T1 construct: SAD30
Design: species or system S. aureus MSSA476 (TSB) or V. cholerae SAD30 (LB); 384-well bacterial growth screen at 25 uM, OD600 relative to DMSO control

Compound	% of control remaining [%]
Cc1csc(Cl)c1NC(=O)CCl [6-A06, 2-chloro-N-(2-chloro-4-methylthiophen-3-yl)acetamide]	102.228
O=C(CCl)C1CC12CCOCC2 (stereo not shown) [10-M15, 2-chloro-1-{6-oxaspiro[2.5]octan-1-yl}ethan-1-one]	99.5909
CCN(C(=O)C(C)Cl)C1CCCCC1 (stereo not shown) [5-I19, 2-chloro-N-cyclohexyl-N-ethylpropanamide]	97.1735
O=C(CCl)N1CC(S(=O)(=O)Nc2ccccc2)C1 [5-G10, 1-(2-chloroacetyl)-N-phenylazetidine-3-sulfonamide]	71.283
Cc1c(C=C(C#N)C(=O)NCc2ccccc2)cc(C#N)n1C [9-I15, N-benzyl-2-cyano-3-(5-cyano-1,2-dimethyl-1H-pyrrol-3-yl)prop-2-enamide]	88.8511
COc1cc(C=C(C#N)C(=O)Nc2ccc(Cl)cc2)cc(OC)c1 [8-K16, N-(4-chlorophenyl)-2-cyano-3-(3,5-dimethoxyphenyl)prop-2-enamide]	73.8953
C=CC(=O)N(CC)CC(=O)N1CCNC(=O)C1c1cccs1 (stereo not shown) [3-G07, N-ethyl-N-{2-oxo-2-[3-oxo-2-(thiophen-2-yl)piperazin-1-yl]ethyl}prop-2-enamide]	95.0891
CC(NC(=O)C(C#N)=Cc1cc(F)ccc1F)c1ccccc1 (stereo not shown) [8-O06, 2-cyano-3-(2,5-difluorophenyl)-N-(1-phenylethyl)prop-2-enamide]	73.8953
C=CC(=O)N1C[C@H](NC(C)=O)[C@@H](c2ccnn2C)C1 (racemic) [2-M16, rac-N-[(3R,4S)-4-(1-methyl-1H-pyrazol-5-yl)-1-(prop-2-enoyl)pyrrolidin-3-yl]acetamide]	91.1223
C=CC(=O)N1CCCC(c2nc(N(C)C)no2)C1 (stereo not shown) [3-A13, 1-{3-[3-(dimethylamino)-1,2,4-oxadiazol-5-yl]piperidin-1-yl}prop-2-en-1-one]	112.204
C=CC(=O)N(CC)CC(=O)NC1CCN(C(C)=O)c2ccccc21 (stereo not shown) [2-N06, N-{[(1-acetyl-1,2,3,4-tetrahydroquinolin-4-yl)carbamoyl]methyl}-N-ethylprop-2-enamide]	90.0415
Cc1cccc(C=C(C#N)C(=O)NC2CCCCC2)c1 [8-K07, 2-cyano-N-cyclohexyl-3-(3-methylphenyl)prop-2-enamide]	72.9436
C=CC(=O)N1CCC(C(=O)N2CCCC2COC)CC1 (stereo not shown) [2-E12, 1-{4-[2-(methoxymethyl)pyrrolidine-1-carbonyl]piperidin-1-yl}prop-2-en-1-one]	88.4975
